In all, about 44,000 compounds went through this assay and about 340 (0.77%) were called active. Another 5% or so got no clear call; they are omitted. Calls follow the shape of the dose curve; as a rule, active = well fitted inhibition curve with a large enough effect; inconclusive = small, poorly fitted or top-dose-only effect; inactive = flat fitted curve, though single readings scatter. This is one part of the list.
Experiment: Acumen qHTS Assay for Inhibitors of the mTORC1 Signaling Pathway in MEF (Tsc2-/-, p53-/-) Cells: Sytravon;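 also: plate controls were DMSO for no effect and rapamycin for full effect; nearly all actives have a fitted effect of over 50% in size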
Details: phospho-rpS6 immunofluorescence/PI, 24 h; series mostly up to 38.3 µM; activity change, negative = inhibition: at the top concentration
Procedure, shortened: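 Cell-based qHTS: Tsc2-/- p53-/- MEF, 24 h cpd, 37 °C; fix/perm, anti-phospho-S6 Alexa-488 + PI; Acumen 488 nm scan; pS6/PI ratio, % positive cells; rapamycin 7.5 nM = inhibition ref; PI count = viability.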

Row | SMILES | activity change, negative = inhibition
1 | COC(=O)c1ccccc1NC(=O)Cn1c(=O)n(CCCC(=O)NCc2ccccc2OC)c(=O)c2ccccc21 | inactive: 0.27%
2 | COc1cc2cc(CNc3ccccc3)c(=O)n(CC(=O)Nc3cc(C)cc(C)c3)c2cc1OC | inactive: -7.71%
3 | O=C(CCC1N=C2c3ccccc3N=C(SCc3ccc(F)cc3)N2C1=O)NC1CCCCC1 (stereo unspecified) | inactive: -1.27%
4 | CC(=O)c1ccc(NC(=O)c2nc3nc(C)cc(C(F)F)n3n2)cc1 | inactive: 2.27%
5 | CCOc1ccc(-n2nc(CO)c(C(=O)NCc3cccc(OC)c3)n2)cc1 | inactive: -13.5%
6 | Cc1cc(C)cc(-n2ccn(CC(=O)Nc3ccccc3F)c(=O)c2=O)c1 | inactive: 7.84%
7 | CSc1ncc(C(=O)Nc2cc(Cl)ccc2C)c(-c2ccccc2)n1 | inactive: -0.743%
8 | COc1ccccc1NC(=O)C1CCN(c2cnccn2)CC1 | inactive: -6.93%
9 | CC(=O)N1CCCc2cc(S(=O)(=O)N3CCN(c4cccc(C(F)(F)F)c4)CC3)ccc21 | inactive: -15.7%
10 | CCOC(=O)c1ccc(NC(=O)CSc2nc3c([nH]c4ccccc43)c(=O)n2C)cc1 | inactive: -17.2%
11 | Cc1cn2c(=O)cc(COc3ccccc3NC(=O)c3ccc(Cl)cc3)nc2s1 | inactive: -20.8%
12 | Cc1ccc(NC(=O)C2CCC(CNS(=O)(=O)c3ccc4c(c3)CCCC(=O)N4)CC2)c(C)c1 (stereo unspecified) | inactive: -1.05%
13 | Cc1ccccc1-c1noc(-c2cc(-c3ccc(F)cc3)n[nH]2)n1 | inactive: -7.25%
14 | CCCCc1nc2ccccc2n1CC(=O)N(COCC)c1c(C)cccc1CC | inactive: 0.793%
15 | Cc1cc(C)cc(NC(=O)C2CCN(S(=O)(=O)c3ccc4c(c3)oc(=O)n4C)CC2)c1 | inactive: 1.15%
16 | Cc1ccc2oc(-c3ccc(Cl)c(NC(=O)c4ccc(OC(C)C)cc4)c3)nc2c1 | inactive: 2.46%
17 | CC(C)c1ccc(Nc2c(-c3ccco3)nc3ccccn23)cc1 | inactive: 0.799%
18 | COc1cc(NC(=O)c2ccc(-n3cnc4cccnc43)cc2)cc(OC)c1 | inactive: -6.28%
19 | Cc1ccc(S(=O)(=O)N(CC(=O)Nc2ccc3c(c2)OCO3)c2ccc(C)c(Cl)c2)cc1 | inactive: 0.9%
20 | CCOC(=O)c1cc(NC(=O)c2ccc(OC)cc2)c(=O)n2c1oc1ccc(Cl)cc12 | inactive: -0.478%
21 | CCn1c(CNC(=O)C23CC4CC(CC(C4)C2)C3)nnc1SCC(=O)Nc1ccc(F)cc1 | inactive: -14.1%

Row | SMILES | activity change, negative = inhibition
22 | CC1Cc2ccccc2N1C(=O)CSc1nnc(-c2cccc(Cl)c2)o1 (stereo unspecified) | inactive: -1.33%
23 | O=c1[nH]c2ccc(NCc3ccccc3F)cc2[nH]1 | inactive: 1.4%
24 | CCOc1ccc(CCNC(=O)c2cc3c(=O)n(C)c4ccccc4c3n2C)cc1 | inactive: 1.41%
25 | O=C(CCc1ccccc1)NCc1ccc2c(c1)CCN2C(=O)c1ccc(Cl)cc1 | inactive: -6.24%
26 | CCc1cccc(NC(=O)CC2Oc3ccc(C)cc3NC2=O)c1 (stereo unspecified) | inactive: -0.7%
27 | Cc1ccc(NC(=O)CC2Sc3ccccc3NC2=O)c(Br)c1 (stereo unspecified) | inactive: -28.2%
28 | C=C(C)Cn1c(SCC(=O)Nc2cccc(Cl)c2)nc2sc3c(c2c1=O)CCCC3 | inactive: -11.1%
29 | O=C(NCCS(=O)(=O)N1CCN(c2cccc(Cl)c2)CC1)c1cc(=O)c2ccccc2o1 | inactive: -5.91%
30 | CC1=C(c2ccc(C)c(C)c2)S(=O)(=O)N=C1N1CCC(C(=O)NCc2ccc(Cl)cc2)CC1 | inactive: -0.815%
31 | O=C(NCCC1=CCCCC1)c1ccc2c(c1)N(Cc1ccc(Cl)cc1)C(=O)c1ccccc1S2=O (stereo unspecified) | inactive: -8.87%
32 | COc1ccc(-n2c(=O)c3c(c4cc(OC)ccc4n3C)n(C)c2=O)cc1 | inactive: 0.393%
33 | CCOc1ccc(NC(=O)Cn2cc(C(=O)c3ccc(CC)cc3)c(=O)c3ccc(C)nc32)cc1 | inactive: -9.08%
34 | CCOC(=O)c1cccc(NC(=O)c2cnc(N3CCCCC3)c3ccccc23)c1 | inactive: -5.33%
35 | Cc1ccc(-n2c(=O)c3cccnc3n2CC(=O)NCc2ccc(F)cc2)cc1C | inactive: 0.569%
36 | Cc1ccc(CNC(=O)CN2CCCN(Cc3ccc(F)cc3)S2(=O)=O)cc1 | inactive: 19.5%
37 | Cc1cc(C)c(/C=C/c2onc(C)c2S(=O)(=O)N2CCC(C(=O)Nc3ccc(Cl)c(C(F)(F)F)c3)CC2)c(C)c1 | inactive: -13.5%
38 | O=C(COc1ccccc1F)Nc1ccc(Cl)c(-c2nc3ccccc3[nH]2)c1 | inactive: -20.3%
39 | COc1ccc(NC(=O)CSc2nccn2Cc2ccco2)cc1OC | inactive: -1.95%
40 | Cc1cccc(Cn2c(=O)n(-c3ccc(Cl)c(Cl)c3)c(=O)c3c(C)c(C)sc32)c1 | inactive: 4.63%
41 | CCOC(=O)c1cnc2ccccc2c1Nc1ccc(N2CCOCC2)cc1 | inactive: 1.66%
42 | CCc1ccc(N2CCn3c2nc2c3c(=O)n(CCc3ccccc3)c(=O)n2C)cc1 | inactive: -4.73%

Row | SMILES | activity change, negative = inhibition
43 | Cc1ccc2nc(NC(=O)CSc3nccn3Cc3ccccc3)sc2c1 | inactive: 0%
44 | CCOCCc1nnc(NC(=O)C(=O)c2cc(C)n(-c3cccc(Cl)c3)c2C)s1 | inactive: 3.59%
45 | COc1cc(NC(=O)c2cc(-c3cccc(Cl)c3)on2)c(OC)cc1Cl | inactive: 2.32%
46 | Clc1ccc(-c2nc3ccccn3c2Nc2ccc3c(c2)OCCO3)s1 | inactive: -7.96%
47 | Cc1ccc(N(CC(=O)N2CCN(c3cc(Cl)ccc3C)CC2)S(=O)(=O)c2c(C)noc2C)cc1 | inactive: 8.82%
48 | Cc1noc2ncnc(NCc3ccccc3Cl)c12 | inactive: -25.1%
49 | CCOc1ccc(NC(=O)C(=O)NCCc2csc(-c3ccc(C)cc3)n2)cc1 | inactive: 1.08%
50 | COc1ccc(NC(=O)c2sc3nc(C)c(C(=O)Nc4ccc(C)cc4C)c(-c4cccs4)c3c2N)cc1 | inactive: -4.03%
51 | Cc1ccc(C)c(N2CCN(C(c3ccc(F)cc3)c3nnc(-c4ccccc4)o3)CC2)c1 (stereo unspecified) | inactive: -2.93%
52 | CCN(Cc1ccccc1)C(=O)Cn1c(=O)oc2cc(S(=O)(=O)N3CCCCCC3)ccc21 | inactive: -12.3%
53 | Cc1ccccc1CSc1cn(CC(=O)N2CCCC2)c2ccccc12 | inactive: 0%
54 | CCC(=O)N1CCc2cc(S(=O)(=O)NCCC(=O)Nc3ccc(OC)c(OC)c3)ccc21 | inactive: -0.961%
55 | COc1cc(-c2nnn(CC(=O)NCc3ccccc3)n2)cc(OC)c1OC | inactive: -13.6%
56 | COc1ccc(NC(=O)CSc2nnc3c(C)cc4ccccc4n23)cc1 | inactive: 1.64%
57 | Cc1cnc2c(c1SCC(=O)NCc1ccc(F)cc1)c(=O)n(C)c(=O)n2C | inactive: 2.17%
58 | CCOc1ccc(-c2cc(C(=O)N3CCN(c4ccc(C)cc4)C(C)C3)c3ccccc3n2)cc1 (stereo unspecified) | inactive: -5.97%
59 | COc1cccc(CNC(=O)CCCn2c(=O)c3cccn3c3cccnc32)c1OC | inactive: -17.7%
60 | CC(C)(C)c1ccc(OCC(=O)NC(Cc2c[nH]c3ccccc23)C(=O)O)cc1 (stereo unspecified) | inactive: 1.29%
61 | CCCCn1nc(NC(=O)c2cccc(Cl)c2)c2cc3ccc(C)cc3nc21 | inactive: -5.01%
